From PubChem BioAssay AID330 (DTP/NCI, 2004)
Inconclusive results and toxic doses are left out. A number of entries come with more than one value. They are shown here; other results are not. An entry can have further records. Values given together differ for a reason that is not stated; some may be repeats, others may stem from another dose, organism or construct than stated. A tag in brackets gives the origin of a value. The letters are not those of the source and start again with each entry.

Test system: P388 leukemia ip, CD2F1 mice, survival T/C
Experiment: NCI In Vivo Anticancer Drug Screen. Data for tumor model P388 Leukemia (intraperitoneal) in CD2F1 (CDF1) mice
Details: endpoint: median survival time, higher = longer survival

## COc1cc2c(c(OC)c1OC)-c1ccc(SC)c(=O)cc1[C@@H](NC1OC(CO)C(O)C(O)C1O)CC2 (some centres undefined)
dose: 50.0 mg/kg/injection, schedule: Q01DX009 (ip), vehicle: saline
  T/C: 152 % of control [sample A] and 105 % of control, 150 % of control, 170 % of control [sample B]

## O=C1CN(CCN2CC(=O)N(CN3CCOCC3)C(=O)C2)CC(=O)N1CN1CCOCC1
dose: 25.0 mg/kg/injection, schedule: Q01DX005 (ip), vehicle: water
  T/C: 111 % of control and 152 % of control

## COC(=O)Nc1nc2ccc(C3(c4ccc(F)cc4)OCCO3)cc2[nH]1
dose: 80.0 mg/kg/injection, schedule: Q04DX003 (ip), vehicle: saline
  T/C: 95 % of control and 155 % of control

## COc1cccc2c1C(=O)c1c(O)c3c(c(O)c1C2=O)C[C@@](O)(/C(C)=N/NC(=O)c1ccccc1)C[C@@H]3OC1CC(N)C(O)C(C)O1 (some centres undefined)
dose: 4.0 mg/kg/injection, schedule: Q04DX003 (ip), vehicle: water
  T/C: 97 % of control and 196 % of control
